Source: article PMC12136788
The list shows a part of the results.

T1: UNK ZnF1-3 (human, UniProt Q9C0B0 31-174)
T1 sequence: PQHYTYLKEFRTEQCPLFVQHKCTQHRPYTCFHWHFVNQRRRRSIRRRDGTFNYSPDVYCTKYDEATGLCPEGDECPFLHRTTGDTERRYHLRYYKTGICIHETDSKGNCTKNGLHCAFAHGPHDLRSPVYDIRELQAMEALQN

B1: chr16:94690093:94690094:+_ENSMUSG00000040785_ENSMUST00000117648|mus_hu|mus_mus_mus_hu_True|28_68 (ssRNA)
RNA: GGGAGUUCUACAGUCCGACGAUCGGGCUGGGAUGACGGACACACAGCCUCGAUUCCAGGGGGAAAAAAAAAUAGCCGAUACUAAUUAAAAAGUGUUAAUGAUUUUUAUUACCAAAAUUACAUCUAUAAAAGAUGAAAAGCAAACAACAGAGGAUUGAGCAUCA
B2: chr14:78183846:78183847:+_ENSG00000119705_ENST00000557342|hu_hu|hu_hu_hu_mus_False|98_108 (ssRNA)
RNA: GGGAGUUCUACAGUCCGACGAUCUCUGUCUCAAAAAUCUUUCUUUUAUGUUUGAGCUCCGUGCAAAGCCUUUGCUCUUUGAGCUUGAACGUGGAUCUAUGGGAGGGAAAGCACUGUCAGAAAAGGUAAUUUUUUUUUUAAAGACAACAGAGGAUUGAGCAUCA
B3: chr7:135612270:135612271:-_ENSG00000105887_ENST00000393085|hu_mus|hu_hu_hu_mus_False|38_98 (ssRNA)
RNA: GGGAGUUCUACAGUCCGACGAUCGUUUUUUUCUGAGUAAGUAUUACGUACUUCAGUGGAAAACAAAACUUAACCUUUUAUUAAUGCGUGUUGUACCAGAAAGCAAAAUUUUAGCUUCAUUUAUUCAAAAAUAUUAACAUUAAGCAACAGAGGAUUGAGCAUCA
B4: chr4:57314706:57314707:+_ENSG00000128050_ENST00000264221|hu_mus|hu_hu_hu_mus_True|78_108 (ssRNA)
RNA: GGGAGUUCUACAGUCCGACGAUCCAGUAUUUCAAAUAUAGCUUGUGUGGCAUGACUCAUGAUAUCCACUUCAGUCUGCCCUAUAACAAGGCCAGCAAAACAGAAUUUUGCAGCAAUGAGUUGCUCCUCAGACCACUGUGGAUCCAACAGAGGAUUGAGCAUCA
B5: chr4:115894766:115894767:+_ENSMUSG00000028698_ENSMUST00000030464|mus_hu|mus_mus_mus_hu_True|18_58 (ssRNA)
RNA: GGGAGUUCUACAGUCCGACGAUCUUCCACACGGAAAUGUACUUCGGGUUUUCCAACGGCCAGUACCAGUCCGGCCAACUACUAGGAACAGGGUCCUCCCCCUCUCUCCUACAGAACUAAAGCACCCGCCCCCGAACUUUCAAGCAACAGAGGAUUGAGCAUCA
B6: chr6:82862619:82862620:-_ENSMUSG00000000627_ENSMUST00000000641|mus_mus|motif|central (ssRNA)
RNA: GGGAGUUCUACAGUCCGACGAUCAACCUGCUUGUAAUUUCCUACACACUUUUCUGGGUUCCUUUUGUCAUCCCUCAAUAGCGGGAAUGUUGUGAAGUUCAUUUUAAAUGGAAGCCAAGGAAAGAGGGCUCAGCCUCCACUCCACAACAGAGGAUUGAGCAUCA
B7: chrX:71549400:71549401:+_ENSMUSG00000019087_ENSMUST00000019231|mus_hu|mus_mus_mus_hu_False|8_78 (ssRNA)
RNA: GGGAGUUCUACAGUCCGACGAUCGCAGUAGGAAGAGGGAAGCUCUUCAGUCCAGUGGUCACAAAACUGGGAAAGCAACAACACGGACACCGUCCCACCCUCAACCCCCCCACUGGCACAGGGUCACAUCUGGGUCAUCAAAGACAACAGAGGAUUGAGCAUCA
B8: 6858023_6858143_687_CDS_ENSG00000089693_ENST00000435120|human|control|control (ssRNA)
RNA: GGGAGUUCUACAGUCCGACGAUCGGGAGGCCCCUCCGCCCUUCGUCCCCCAGCCCCUGAGGACUCAAGCCGCCGAAACUCCAGGGGACGCUGCUGCCGGAAUCGGGAGGUCUCCCGCCGCCACUCGUCAUCAAACGCUGCGGCCAACAGAGGAUUGAGCAUCA
B9: 54184324_54186607_390_CDS_ENSMUSG00000021474_ENSMUST00000021930|mouse|control|control (ssRNA)
RNA: GGGAGUUCUACAGUCCGACGAUCCACAGCCGGUGUGGUCCGGUAGAAGGUCAUCAUGCAGCCUGUGAUGGUCAUGUUCAUCGGGACCUGAGCUGACAUUCUUCCUAUCAGAGUCAUCUUUUCACCGGUGUCAGGAUGGAAGGCCAACAGAGGAUUGAGCAUCA
B10: chr6:38652254:38652255:-_ENSG00000124767_ENST00000373365|hu_hu|hu_hu_hu_mus_False|48_58 (ssRNA)
RNA: GGGAGUUCUACAGUCCGACGAUCCGAGAACUUCAUAGCAGGGAAGUCAAGCUUCUGCAGGAGGGUCAGUCCAAGAACUCUAGUAUAAAAAUCCAGUGACUUCUUAGGAUCCUUAAUUCUUAGCAUCGUUUGCUGCAGUAGAAACAACAGAGGAUUGAGCAUCA
B11: chr2:15768762:15768763:+_ENSG00000079785_ENST00000233084|hu_mus|motif|central (ssRNA)
RNA: GGGAGUUCUACAGUCCGACGAUCAGGCAGGGUGACGUUGAUCACAUAAGGAACGCCAUGGAUAUCAAUCCCUCUAGCAGCGGCAUCUGUGCAAAUCAAGAAUCUUACGUCUCCUUUCUUAAAUCGUUCCAAGUUUUGCUUUCUCAACAGAGGAUUGAGCAUCA
B12: chr5:31803264:31803265:+_ENSMUSG00000064037_ENSMUST00000076949|mus_hu|FALSE|FALSE (ssRNA)
RNA: GGGAGUUCUACAGUCCGACGAUCUGGAAAUGAGGAUGCAAGGGCUUCAGUGAUAAUUGUCCCAGAAGCUGACCAGGUGAAUACCUCAAUCUGUCCAGGUGUGUCAAUCAACACAUAUUUGGACAUGUUCUGGGCCUUCUCAAUCAACAGAGGAUUGAGCAUCA
B13: chr4:83978119:83978120:+_ENSG00000138663_ENST00000264389|hu_hu|FALSE|FALSE (ssRNA)
RNA: GGGAGUUCUACAGUCCGACGAUCAUUUAUGUAAGCCUCUGCCUGGACUGGAUCAUCAUCCUCCAGAUAUAGCCUAGCAAUCUUCAAGUAAGUCUCCAGUUUAUAAUCUACAUUGUACUGUUUUUGUCCUGUUUCCAAAGGAAUCAACAGAGGAUUGAGCAUCA
B14: chr7:135612270:135612271:-_ENSG00000105887_ENST00000393085|hu_mus|hu_hu_hu_mus_False|88_108 (ssRNA)
RNA: GGGAGUUCUACAGUCCGACGAUCGUUUCUGAGAUGUAUGUUAAAUAUUCAGUGGAGGGAAAACAAAACUUAACCUUUUAUUAAUGCGUGUUGUACCAAAAGCAGACAUUUUAGCUUCAUUUAUUCAAAAAUAUUAACAUUAAGCAACAGAGGAUUGAGCAUCA
B15: chr1:93988920:93988921:+_ENSG00000137942_ENST00000370253|hu_hu|FALSE|FALSE (ssRNA)
RNA: GGGAGUUCUACAGUCCGACGAUCCAGAUCAUGAGCAUAUCUCAUUAAUUCACCAUACACUCUGUGCGCCAUUUCUUCUGCUACAACUUCUCGCUGUCCUGCAUAGUCAUUUAACUCAUUAAGGAUAUUAAAAAAGGCUACACACAACAGAGGAUUGAGCAUCA
B16: 57543866_57545502_978_CDS_ENSMUSG00000062949_ENSMUST00000101527|mouse|control|control (ssRNA)
RNA: GGGAGUUCUACAGUCCGACGAUCUAAAUAAACAAUCAAGAAGGCAUUAAUAGAUUUUUCAACAGCAGAACAUUUCUGAGAUUUCCCUUGGUAGUUCAAAGCCAUUUUGGUUUCCAUCCCAGUGUAAACAGCAACUCCAUAUAUCAACAGAGGAUUGAGCAUCA
B17: chr10:33214929:33214930:-_ENSG00000150093_ENST00000302278|hu_hu|hu_hu_hu_mus_True|78_88 (ssRNA)
RNA: GGGAGUUCUACAGUCCGACGAUCAACAAGUUCAUUGAAAAACUCUCCUUUAUUAGUAAGACUGAGCACAUUUUUGUAGCUAAAUGGGCUGGUGCAGUUUUGUUCACUUGUACAAGGAUUUCUUAGCUUUGCUGGGGUUGUGCUCAACAGAGGAUUGAGCAUCA
B18: chr5:95128998:95128999:+_ENSG00000164292_ENST00000379982|hu_mus|motif|central (ssRNA)
RNA: GGGAGUUCUACAGUCCGACGAUCAGCUUUUGUUCCCUUUUAAGACCACCACAGUCUUUAAAAGAUAACUAGUAAGAAGCGGUAUGGUGACUUUUAAAACAUAUUGAUUUUAGUUAUAAGAAUUUUUCCUGGAAUCCAGAAGUACAACAGAGGAUUGAGCAUCA
B19: chr11:75570464:75570465:+_ENSMUSG00000020849_ENSMUST00000067664|perfect_dup|FALSE|FALSE (ssRNA)
RNA: GGGAGUUCUACAGUCCGACGAUCACGGUCGGGGGAAUUAAGAAUUUCAUAGUAGAAUACGGAAAAGUUGAGAGCAAGACCUAAACGAAUGGGGUGCGUUGGAGGAAGUUCUGUCAUCGCAAUGUCACUAGCAGCUUUGUAAGCCAACAGAGGAUUGAGCAUCA
B20: chr5:71490416:71490417:+_ENSG00000131711_ENST00000296755|hu_hu|FALSE|FALSE (ssRNA)
RNA: GGGAGUUCUACAGUCCGACGAUCAUACUGCAUUUCCUUGCUGCUCUUGACUGGAUUAAGCACAUACAUCUCAAGUUUACCUACUCCCAUUUUUUGGAAAAGAAUGACAGGAUCAAUAGUAUUGCCUACACUUCUAAACAGAGGCAACAGAGGAUUGAGCAUCA
B21: chr7:108137184:108137185:-_ENSG00000135241_ENST00000257694|hu_mus|FALSE|FALSE (ssRNA)
RNA: GGGAGUUCUACAGUCCGACGAUCUCGAUAGAGUUCCUCACAUUCAUCCAGCGGCAUGUGAAACAAUCCCAGCAUAAAUGCUAAUAUGGCCCCUGUGCUUACUCCACAGAUGUAAUCAAAAAGCUGAUGAAUCGGCUUCUGAGUCAACAGAGGAUUGAGCAUCA
B22: chr10:5827197:5827198:-_ENSG00000057608_ENST00000380191|perfect_dup|FALSE|FALSE (ssRNA)
RNA: GGGAGUUCUACAGUCCGACGAUCAUACAGGUACGGGCUUUUACCGUAUCUUGCCAAAGACUCGCUGUAAAGUUUAAUUCUAUUAAUGGUUUCACAACACGGCUGAUCUAAGUAGUCAUCUGUUCUGUACAGUGCAAGAGAAUGCAACAGAGGAUUGAGCAUCA

target: T1, UNK ZnF1-3; test: nsRBNS (natural sequence RNA bind-n-seq); RBNS binding buffer (assumed for nsRBNS): 25 mM Tris pH 7.5, 150 mM KCl, 3 mM MgCl2, 0.01% Triton X-100, 500 ug/ml BSA, 20 U/ml SUPERase-In, 4 C; UNK is unkempt and MSI1 is Musashi-1; names of the RNAs are library labels; protein concentration not given here; high values mean tight binding

Compared with B1, B2 is lower in binding signal: 3.01 enrichment R for the first, 1.47 enrichment R for the second.

Compared with B3, B4 is lower in binding signal: 1.24 enrichment R for the first, 1.03 enrichment R for the second.

Compared with B5, B6 is lower in binding signal: 1.14 enrichment R for the first, 0.74 enrichment R for the second.

Compared with B7, B8 is lower in binding signal: 1.98 enrichment R for the first, 0.992 enrichment R for the second.

First: B9
Second: B10
The binding signal of the first is lower: 0.862 enrichment R for the first, 1 enrichment R for the second.

First: B11
Second: B12
The binding signal of the first is higher: 0.966 enrichment R for the first, 0.797 enrichment R for the second.

First: B13
Second: B14
The binding signal of the first is lower: 0.825 enrichment R for the first, 1.47 enrichment R for the second.

Compared with B15, B16 is lower in binding signal: 1.68 enrichment R for the first, 1.55 enrichment R for the second.

Compared with B17, B18 is higher in binding signal: 0.839 enrichment R for the first, 1.73 enrichment R for the second.

Compared with B19, B20 is lower in binding signal: 1.84 enrichment R for the first, 1.26 enrichment R for the second.

Compared with B21, B22 is lower in binding signal: 0.985 enrichment R for the first, 0.743 enrichment R for the second.
